These are yes or no findings as the source states them, for the method shown. Binding seen in cells or lysates may run through a third protein. Some entries that bind do so weakly or less than the wild type. Where a sequence is shown, tags or fusion partners need not be part of it.
Biological target: T1, PTCH1 C-CTD (1308-1447), HA-tagged (UniProt Q13635)
T1 sequence: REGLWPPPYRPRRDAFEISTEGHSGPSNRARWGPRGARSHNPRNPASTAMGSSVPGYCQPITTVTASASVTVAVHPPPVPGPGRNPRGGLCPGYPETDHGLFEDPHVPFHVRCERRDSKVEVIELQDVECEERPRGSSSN
Test: co-IP; HEK293 cells co-transfected with HA-tagged PTCH1 CTD fragments and ATG101-FLAG; CTD fragments immunoprecipitated, immunoblotting; lysis buffer 50 mM Tris HCl pH 7.5, 150 mM NaCl, 1% NP-40, 0.05% sodium deoxycholate, 4 °C

binding: binds
B1: ATG101-FLAG (protein, UniProt Q9BSB4 1-218)
chain: MNCRSEVLEVSVEGRQVEEAMLAVLHTVLLHRSTGKFHYKKEGTYSIGTVGTQDVDCDFIDFTYVRVSSEELDRALRKVVGEFKDALRNSGGDGLGQMSLEFYQKKKSRWPFSDECIPWEVWTVKVHVVALATEQERQICREKVGEKLCEKIINIVEVMNRHEYLPKMPTQSEVDNVFDTGLRDVQPYLYKISFQITDALGTSVTTTMRRLIKDTLAL
